# Source: paper PMC4336329 (PLoS ONE, 2015)
# Out of some 310,000 compounds screened, about 2,200 (0.71%) showed an effect of 50% or more. Effects have a minus sign here. The list shows a part of the results.
# Target: human ether-à-go-go-related gene (hERG) potassium channel (human, UniProt Q12809)
# Experiment: primary screen, population patch clamp on CHO cells stably expressing hERG
# human ether-à-go-go-related gene (hERG) potassium channel, sequence (Q12809 whole entry, looked up): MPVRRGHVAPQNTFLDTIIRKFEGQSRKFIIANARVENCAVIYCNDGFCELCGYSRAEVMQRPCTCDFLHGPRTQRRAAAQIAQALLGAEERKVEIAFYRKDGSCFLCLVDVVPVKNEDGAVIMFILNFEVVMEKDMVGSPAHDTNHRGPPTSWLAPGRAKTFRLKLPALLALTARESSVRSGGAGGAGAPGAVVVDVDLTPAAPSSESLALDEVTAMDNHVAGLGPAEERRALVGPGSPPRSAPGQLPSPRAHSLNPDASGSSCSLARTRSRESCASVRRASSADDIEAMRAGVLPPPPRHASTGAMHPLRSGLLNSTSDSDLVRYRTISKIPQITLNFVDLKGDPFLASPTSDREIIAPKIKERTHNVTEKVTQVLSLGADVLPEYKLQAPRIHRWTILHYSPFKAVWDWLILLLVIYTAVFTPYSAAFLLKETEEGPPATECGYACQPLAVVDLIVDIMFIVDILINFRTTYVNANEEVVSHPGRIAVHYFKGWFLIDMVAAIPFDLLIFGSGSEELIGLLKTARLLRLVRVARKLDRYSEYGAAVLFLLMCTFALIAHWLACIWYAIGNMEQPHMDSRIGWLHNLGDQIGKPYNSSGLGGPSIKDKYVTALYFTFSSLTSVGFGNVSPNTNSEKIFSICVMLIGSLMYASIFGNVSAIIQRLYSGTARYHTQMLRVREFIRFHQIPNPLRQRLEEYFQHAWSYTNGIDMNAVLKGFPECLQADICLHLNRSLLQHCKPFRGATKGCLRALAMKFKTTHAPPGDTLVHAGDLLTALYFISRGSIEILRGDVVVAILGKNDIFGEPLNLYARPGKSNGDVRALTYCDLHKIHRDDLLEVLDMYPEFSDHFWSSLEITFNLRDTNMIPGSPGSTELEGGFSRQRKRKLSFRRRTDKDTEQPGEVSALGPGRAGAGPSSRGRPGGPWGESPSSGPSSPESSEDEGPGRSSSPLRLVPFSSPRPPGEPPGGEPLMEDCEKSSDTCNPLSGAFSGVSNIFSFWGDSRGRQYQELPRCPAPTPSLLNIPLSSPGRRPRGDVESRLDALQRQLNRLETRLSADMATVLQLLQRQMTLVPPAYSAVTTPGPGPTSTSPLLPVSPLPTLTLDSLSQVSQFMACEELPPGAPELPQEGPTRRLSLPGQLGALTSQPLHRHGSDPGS
row,Structure (SMILES),"hERG current change (%, negative = inhibition) at 1uM [%]"
1,COc1cccc(NC(=O)CCC2CCN(Cc3nccs3)CC2)c1,9.32
2,COc1ccc(Cn2cc3c(-c4ccc(F)cc4)nnc-3c3cc(OC)c(OC)cc32)cc1,-75.6
3,CCCCCc1nnc(NC(=O)C(=O)OCC)s1,1.01
4,CC(=O)c1cn(CCOc2ccccc2C)c2ccccc12,26.4
5,O=C(NC(=S)Nc1ccc(NC(=O)c2cccs2)cc1)c1ccco1,6.68
6,Cc1cccc(NC(=O)CSc2n[nH]c(-c3ccncc3)n2)c1C,11.9
7,O=C(NCc1ccco1)/C(=C\c1ccc(F)cc1)NC(=O)c1ccco1,5.6
8,O=C(OCc1ccccc1)c1ccc2c(c1)-c1ccccc1C2=O,4.6
9,CC(C)CCOc1ccc(-c2c(=O)n(OCc3ccc([N+](=O)[O-])cc3)c3ccccc3[n+]2[O-])cc1,21.9
10,COc1cccc(C(=O)c2c(C)c(CCC#N)n3ccccc23)c1OC,9.21
11,COC(=O)C(NC(=O)c1ccccc1C(=O)O)c1ccc2ccccc2c1 (centres unmarked),15.4
12,COC(=O)CCC(=O)NNC(=O)Cc1ccccc1,20.6
13,Cc1cc(C)n(C(=O)CNC(=O)c2ccccc2F)n1,14.4
14,Cc1ccc(CNC(=O)[C@H](Cc2ccccc2)NC(=O)c2ccco2)cc1,11.3
15,CCCCc1cc(=O)oc2c(CN3CCN(C)CC3)c(O)ccc12,8.26
16,O=C(NCC(c1ccco1)N1CCOCC1)c1ccc([N+](=O)[O-])cc1 (centres unmarked),5
17,Cn1cccc1C(C#N)(CC#N)c1cccc(F)c1C#N (centres unmarked),5.15
18,Cc1cc(S(=O)(=O)Nc2ccc(C(=O)NCC(c3ccco3)N3CCCC3)cc2)ccc1F (centres unmarked),4.01
19,CC(=O)Nc1ccc(NC(=O)C(=O)NCC(c2ccco2)N2CCc3ccccc3C2)cc1 (centres unmarked),2.18
20,CCOc1ccc(OCc2cccc(C(=O)Nc3ccc(CN4CCCCC4)cc3)c2)cc1,5.88
21,O=C(NCc1ccccc1Cl)C1CCN(S(=O)(=O)N2CCC3(CC2)OCCO3)CC1,7.72
22,Cn1c(=O)c2c(nc(N3CCCCCC3)n2CCSc2nc3ccccc3o2)n(C)c1=O,1.28
23,CCN(C(=O)CN1C(=O)S/C(=C\c2cccc(Cl)c2)C1=O)C1CCS(=O)(=O)C1 (centres unmarked),7.72

row,Structure (SMILES),"hERG current change (%, negative = inhibition) at 1uM [%]"
1,CN1CCN(c2ccc(NC(=O)c3ccc(Cl)cc3Cl)cc2)CC1,7.76
2,CCOC(=O)CCNCc1ccc(OC)c(OC)c1.Cl,13.6
3,O=C(/C=C/c1cn(-c2ccccc2)nc1-c1cccnc1)N1CCCCC1,-11.3
4,CCC(=O)c1ccc(OCC(=O)OCC(=O)NCc2cccs2)cc1,-5.99
5,Oc1cccc(Nc2nc(-c3ccccc3)nc3ccccc23)c1,9.15
6,O=C(COC(=O)COc1ccc(Cl)cc1)Nc1ccc(F)c([N+](=O)[O-])c1,9.02
7,N#Cc1cc(-c2ccccc2)nc(Oc2ccccc2)n1,3.48
8,O=C(c1ccc(Cl)cc1)N(Cc1ccc(Br)cc1)N1C(=O)CCC1=O,-1.71
9,CCOCCCNC(=O)/C(C#N)=C/c1ccc(-c2ccc(S(=O)(=O)N3CCOCC3)cc2)o1,-1.44
10,CCc1ccccc1NNC(=O)c1cc(C)on1,14.7
11,O=C(Cc1ccccc1Cl)N1CCOCC1,8.51
12,OCc1nnc2c3ccccc3c(-c3ccccc3)nn12,10
13,CCOc1ccccc1N1CCN(C(=O)Nc2ccc(Cl)c(Cl)c2)CC1,9.47
14,CCOC(=O)CSc1nnc(CNC(=O)c2ccc(S(=O)(=O)N3CCOCC3)cc2)n1C,17.2
15,Cn1cc(Br)c(C(=O)Nc2sc3c(c2C(N)=O)CCC3)n1,13.8
16,COc1ccc(C(=O)Nc2ccc(Br)cn2)cc1S(=O)(=O)N1CCOCC1,-19.5
17,O=P1(O)C=C(c2ccccc2)OC(c2ccccc2)=C1,14.1
18,Cn1cncc1C#Cc1c(C=O)[nH]c2ccccc12,11
19,Cc1c(C(=O)N(C)C)sc(NC(=O)c2cc([N+](=O)[O-])cc([N+](=O)[O-])c2)c1C#N,5.42
20,Cc1nn(CCS(=O)(=O)c2ccc(Cl)cc2)c(C)c1Br,17.8
21,CCn1c(C)c(C(=O)O)c2cc(OC)ccc21,4.28
22,O=C(Nc1cccnc1N1CCOCC1)c1cccs1,3.87
23,CN=C(C)c1c(O)c2ccccc2oc1=O,2.52

row,Structure (SMILES),"hERG current change (%, negative = inhibition) at 1uM [%]"
1,CCCn1c(NC(=O)c2ccc(F)cc2)nc2ccccc21,11.4
2,COc1ccc(NC(=S)N(CCCN2CCC(C)CC2)Cc2cccs2)cc1Cl,-9.68
3,CCn1c(SCC(=O)O)nnc1-c1ccccc1OC,11.7
4,COc1cc(/C=N/NC(=O)c2cc(C3CC3)[nH]n2)cc(OC)c1OC,11.6
5,COc1cc(NC(=O)c2cccc3c2C(=O)N(C2CCCCC2)C3)cc(OC)c1OC,10.8
6,O=C(Oc1ccc2ccc(=O)oc2c1)c1ccccc1,9.28
7,COc1ccc(NC2=NC(C)(CO)CS2)cc1 (centres unmarked),16.6
8,O=C(CCC(=O)N1CCOCC1)NCCc1ccc(F)cc1,15
9,Cn1c2ccccc2c(=O)c2ccc(C#Cc3ccc(N)cc3)cc21,19
10,Cc1ccccc1NC(=O)CSc1ccncc1,11
11,O=C1CCN(Cc2ccccc2)CCN1[C@H](CSc1ccccc1)c1ccccc1,2.25
12,Cn1c(N2CCC(C(N)=O)CC2)nc2c1c(=O)n(Cc1ccc(Cl)cc1)c(=O)n2C,-16.4
13,c1ccc(Nc2nc3ccccc3n3cnnc23)cc1,12.6
14,COc1ccc(-c2nnc(SCC(=O)N3CCCC3)o2)c(OC)c1,5.81
15,COc1cccc(/C=C2\SC(=S)N(N3C(=O)CCCC3=O)C2=O)c1,16.8
16,O=C(NCC1CCCO1)NC1(C(F)(F)F)Oc2ccccc2O1 (centres unmarked),1.46
17,COc1cccc(N2CC(C(=O)OC(C)C(=O)c3ccccc3)CC2=O)c1 (centres unmarked),5.64
18,CCCCc1ccc(-n2c(Cc3cccs3)n[nH]c2=S)cc1,-0.247
19,COc1cccc(/C=C/C(=O)OCC(=O)NCC2CCCO2)c1OC (centres unmarked),8.24
20,O=S1(=O)CCOC[C@H](c2ccccc2)N1Cc1ccccc1F,11
21,Cc1cccc(-c2nc3ccccc3c(=O)n2N)c1,17
22,COc1ccccc1NC(=O)CSc1n[nH]c(-c2ccccn2)n1,8.53
23,CCC(=O)N1CCc2cc(S(=O)(=O)NC(Cc3ccccc3)C(=O)Nc3nccs3)ccc21 (centres unmarked),12.9

row,Structure (SMILES),"hERG current change (%, negative = inhibition) at 1uM [%]"
1,CCOc1ccc(NC(=O)CSc2nnc(C)n2CC)cc1,13.6
2,CC(C)OCCCNC(=O)C1CCC(=O)N1C1CCCC1 (centres unmarked),8.02
3,CCOc1cc(Br)c(CC(=O)O)cc1OCC,10.4
4,CC(=O)CC(=O)Nc1ccc2ccccc2c1,7.95
5,Cn1nc(-c2ccc(NCCO)c([N+](=O)[O-])c2)c2ccccc2c1=O,13.6
6,COc1ccc(-n2cc(C(=O)O)c3ccccc3c2=O)cc1,-8.39
7,COc1ccc(-n2c(SC(CN3CCCCC3)CN3CCCC3=O)nc3ccccc3c2=O)cc1.Cl (centres unmarked),6.87
8,CC1CCN(S(=O)(=O)c2ccc3ncn(CC(=O)N4CCN(C)CC4)c(=O)c3c2)CC1,0.19
9,C(=N\Nc1nc(Nc2ccccc2)nc(Nc2ccccc2)n1)/c1cccnc1,7.3
10,O=C(COC(=O)c1ccccc1[N+](=O)[O-])NC(=O)c1ccccc1,5.76
11,CCOC(=O)CSc1nc(N)nc(C)c1Cl,6.56
12,O=C(CCNC(=O)C1CCN(S(=O)(=O)c2ccccc2)CC1)Nc1ccccc1,10.7
13,CC(=O)O[C@@H]1C[C@H]2C(C)=C[C@H]3OC(=O)[C@@H](C)[C@H]3C[C@H]2[C@]1(C)O,3.48
14,COc1cccc(CNC(=O)C(c2ccc(Cl)cc2)C(C)C)c1 (centres unmarked),9.32
15,O=C(COC(=O)c1ccccc1Br)Nc1ccccc1F,-7.39
16,CC1CCCCC1NC(=O)CN1C(=O)NC(Cc2ccccc2)(Cc2ccccc2)C1=O (centres unmarked),-13.2
17,Cc1cc(C)c(S(=O)(=O)N2CCCC2)c(C)c1,9.09
18,COc1ccc(CCNC(=O)C(=O)NCC2CCNCC2)cc1OC,17.5
19,Cc1c(C(=O)N2CCOCC2)c(S(=O)(=O)Nc2ccc(Br)cc2F)c(C)n1C,11.2
20,Cc1ccc(NC(=O)Nc2ncnc3nc[nH]c23)cc1,11.1
21,Cc1cccc(-n2c(N)cc(=O)[nH]c2=S)c1C,1.19
22,COc1nc2c(s1)C(=O)NCCC2,6.32
23,Cc1ccccc1C(=O)c1cccn1CC(=O)NCCCN1CCc2ccccc2C1,-70
